Measured values published in ChEMBL document CHEMBL4888484, “Replenishing the malaria drug discovery pipeline: Screening and hit evaluation of the MMV Hit Generation Library 1 (HGL1) against asexual blood stage Plasmodium falciparum ,using a nano luciferase reporter read-out” (2022).
The whole screen tested about 150,000 compounds, of which about 540 (0.36%) showed an effect of 50% or more. Some of the results follow.

What follows are compounds tested on Plasmodium falciparum (assay: Primary screen in NF54 nanoGlo assay, in single point, at 2uM, 72h; a lower Z score goes with more inhibition). Conditions: timepoint 72 hour.
Assay type: functional, Erythrocyte

Row | SMILES | % Inhibition [%] | Z score
1 | OCCc1ccc(NCc2csc(C(F)(F)F)c2)cn1 | -11 | 1.44
2 | CC(C)(C)OC[C@@H](O)CN1CCC(c2ccsc2)CC1 | 5 | -1.04
3 | COc1ccc(-c2nnc(-c3cccnc3NCCN(C)C3CCCCC3)o2)cc1 | -9 | 0.85
4 | Cc1noc(C)c1NC(=O)NCCOc1ccc(F)cc1F | -2 | 0.33
5 | Cc1cnn(C2CCCC2)c1NC(=O)NCCCNc1cccnc1 | -14 | 1.92
6 | O=C(NC1CCS(=O)(=O)CC1)c1conc1-c1ccccc1 | -2 | 0.36
7 | O=C(CN1C(=O)CN(c2ccccc2)C1=O)c1ccc2c(c1)CCO2 | -7 | 1.19
8 | C[C@@]1(c2nc(-c3ccccc3C(F)(F)F)no2)CCCO1 | -2 | 0.27
9 | COc1nc2c(cc1CNC(=O)c1cc(C)on1)C(=O)N(C1CCCC1)C2 | -5 | 0.93
10 | COc1ccc(CNC(=O)c2cc3n(n2)C[C@@H](c2ccc4c(c2)OCO4)OC3)cc1 | -8 | 1.3
11 | CCOc1ccc(S(=O)(=O)Cc2n[nH]c(CC)n2)cc1 | 6 | -1.06
12 | Cc1ccccc1C(=O)NCC[C@H](O)C(C)(C)C | -6 | 0.97
13 | COc1cc(NC(=O)N2CCC[C@@H]2CS(C)(=O)=O)cnc1OC | 0 | 0.01
14 | CN1CCC=C(CN(C[C@@H]2CCC(=O)N2)C(=O)C2CCCCC2)C1 | 0 | -0.01
15 | O=C1CN(Cc2ccccc2)C(=O)[C@@H](Cc2c[nH]c3ccccc23)N1 | 7 | -1.47
16 | NC(=O)N1CC[C@H](NC(=O)c2ccc(Cl)o2)C1 | 2 | -0.16
17 | COc1ccc(-c2cc3n(n2)CCC(=O)N3Cc2ccc(C(=O)NCCC(C)C)cc2)cc1 | 6 | -0.71
18 | CC(=O)c1ccc(OC2(C(=O)O)CCN(C3CCCCCC3)CC2)cc1 | 9 | -1.27
19 | Cc1nc(-c2cccs2)sc1C(=O)N1CCC[C@](C)(CO)C1 | -21 | 2.37
20 | O=C(CCCCc1ccccc1)N1CCC(O)(CN2CCCC2)CC1 | -32 | 2.79
21 | CCOC(=O)N1CCC2(CC1)N=C(c1ccccc1O)C[C@@H](c1cc(F)ccc1F)N2 | -2 | 0.3
22 | Cc1ccc2nc(NC(=O)CCC(=O)c3ccccc3)sc2c1 | 1 | -0.05
23 | O=c1[nH]nc(Cn2ccnc2C2CC2)s1 | -7 | 0.69
24 | COc1cccc2c(C(=O)N3CCN(C)CC3(C)C)n[nH]c12 | 4 | -0.56
25 | O=C(CC12CCCCC1C2(F)F)Nc1ccccc1Nc1ccncc1 (stereo not drawn) | -9 | 1.36
26 | CCCN(C(=O)C1CCCc2nn(C)cc21)C1CC(=O)N(C)C1=O (stereo not drawn) | -22 | 2.99
27 | Cc1nc(C)n(CCc2nc3c([nH]2)C[C@H](c2ccc(Cl)cc2)CNC3=O)n1 | -9 | 1.39

Row | SMILES | % Inhibition [%] | Z score
28 | COCCN1CCC(CN(Cc2ccncc2)Cc2nc3ccccc3n2C)CC1 | 0 | 0.04
29 | NS(=O)(=O)Cc1ccc(Br)cc1F | -9 | 1.35
30 | CC1(C)[C@H]2CC=C(CN3C[C@@H]4[C@H](C3)[C@H]4C(=O)NCc3ccccn3)[C@@H]1C2 | -12 | 1.16
31 | COc1ncccc1CN(C)C1(CO)CCOCC1 | -8 | 0.84
32 | Cc1cccn2cc(CN3CCN(C(=O)c4ccc(-c5ccccc5)cc4)CCC3=O)nc12 | -12 | 1.31
33 | Cc1[nH]nc(CN[C@H]2CCO[C@@H]2c2cc[nH]n2)c1C | 4 | -0.7
34 | COc1ccc(-c2cc3c(N4CCCCCC4)nccn3n2)cc1OC | 28 | -3.79
35 | CCC(CC)CN(CC)C(=O)c1ncc(Br)s1 | -9 | 0.8
36 | CC(C)[C@@H]1NC(=O)N(Cc2ccc3nonc3c2)C1=O | -21 | 2.42
37 | COc1ccc([C@H](C)NC(=O)c2nn(-c3ccc(F)cc3)c3ccccc3c2=O)cc1OC | -2 | 0.3
38 | COCCNC(=O)[C@@]12CCCC[C@H]1N(C1CC1)S(=O)(=O)CC2 | -7 | 0.8
39 | CCCS(=O)(=O)N1CCC[C@H](C(=O)Nc2nc(CC(=O)OCC)cs2)C1 | -3 | 0.38
40 | CC[C@H](NCc1nc(-c2ccncn2)no1)c1ccc(C)cc1 | -6 | 0.76
41 | COCc1nn(CC(=O)NC2CCC2)c(=O)n1-c1ccc2c(c1)OCO2 | 18 | -1.68
42 | Cn1ccnc(N2CCN(CCCOCC(F)(F)F)CC2)c1=O | -6 | 1.21
43 | CC1CCN(C(=O)Cc2csc(NC(=O)c3cccc(O)c3)n2)CC(C)C1 (stereo not drawn) | 35 | -4.49
44 | O=C(NS(=O)(=O)[C@H]1CCCOC1)c1cc(F)cc(F)c1 | -10 | 1.96
45 | NC(=O)c1ccc(S(=O)(=O)N2CCN(Cc3ccc4c(c3)CCO4)CC2)cc1 | -14 | 2.2
46 | CC(C)(N)C(=O)Nc1cc(CCc2ccccc2)[nH]n1 | -3 | 0.45
47 | CC1(C)COc2cc(-c3cccnc3)ccc21 | -5 | 0.92
48 | O=C(NCc1ccccc1C(F)(F)F)c1nnn(-c2ccccc2F)c1-c1cccnc1 | -3 | 0.39
49 | CC(C)(C)NC(=O)C1CCCCN1C(=O)C1CCCO1 (stereo not drawn) | -1 | 0.1
50 | CC[C@H](C)S(=O)(=O)NC(=O)c1cnn(C)c1C | -13 | 1.68
51 | O=C(NCc1ccccc1F)[C@H]1CCCN(C2CCN(Cc3cccnc3)CC2)C1 | 5 | -0.72
52 | COC(=O)CCC(C)(C)NC(=O)c1ccnc(C)n1 | -3 | 0.37
53 | CC(C)[C@H]1CCCN(Cc2cccc(OCc3ccc(F)cc3F)c2)CC1 | -18 | 1.98
54 | CN(C)CCN(CCc1ccccc1)c1ccc(C(=O)Nc2ccccc2)nn1 | 1 | -0.12
